About 4,500 (2.2%) of roughly 200,000 compounds were called active. This list was built around the results that the source calls inconclusive (neither active nor inactive); the mix of calls is not that of the screen. Calls follow the shape of the dose curve; as a rule, active = well fitted inhibition curve with a large enough effect; inconclusive = small, poorly fitted or top-dose-only effect, or effect the other way; inactive = flat fitted curve, though single readings scatter. Where the call is inconclusive, the potency comes from a doubtful curve fit.
Molecular target: Cruzipain (Trypanosoma cruzi) (UniProt P25779)
UniProt P25779, sequence (P25779 whole entry, looked up): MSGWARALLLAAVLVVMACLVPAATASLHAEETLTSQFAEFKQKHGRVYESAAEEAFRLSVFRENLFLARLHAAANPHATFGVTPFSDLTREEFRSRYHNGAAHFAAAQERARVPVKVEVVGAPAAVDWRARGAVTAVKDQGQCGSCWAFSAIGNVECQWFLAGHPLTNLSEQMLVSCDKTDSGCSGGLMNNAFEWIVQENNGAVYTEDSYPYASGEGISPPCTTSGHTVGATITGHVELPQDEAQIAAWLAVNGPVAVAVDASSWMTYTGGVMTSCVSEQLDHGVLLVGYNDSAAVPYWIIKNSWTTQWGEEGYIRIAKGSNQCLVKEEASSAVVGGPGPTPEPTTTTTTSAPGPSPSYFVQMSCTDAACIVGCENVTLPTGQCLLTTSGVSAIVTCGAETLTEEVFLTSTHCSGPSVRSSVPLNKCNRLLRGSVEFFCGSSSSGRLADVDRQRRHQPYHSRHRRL
Assay: qHTS Assay for Promiscuous and Specific Inhibitors of Cruzain (without detergent); also: nearly all actives have a fitted effect of over 40% in size;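 as to max response, negative = inhibition: plate controls were enzyme without inhibitor for no effect and buffer without enzyme for full effect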
Settings: purified cruzain, Z-FR-AMC fluorescence, no detergent
Summary of the method: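 Detergent-free condition (0.00005% Triton X-100) in acetate buffer pH 5.5 with DTT. 1.5 nM enzyme and compound were pre-mixed 15 min, then 2 uM Z-FR-AMC substrate added; reaction progress from fluorescence change between first and third reads (60 s).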
Potency is read from the fitted curve at half-maximal effect; tags tell the direction and shape of the fitted curve.

Structure (SMILES)	max response, negative = inhibition	Potency
Cc1cccc(C(=O)Nc2sc3c(c2C(=O)NC(C)C)CCCC3)c1	inactive: -2.93%	–
COc1ccccc1OCc1nnc(SCC(=O)NCc2ccco2)n1Cc1ccco1	–	inconclusive: 39.8 µM [activator, single point]
COc1cc(C(CC(=O)Nc2cccc(C(C)=O)c2)N2Cc3ccccc3C2=O)cc(OC)c1OC (centres undefined)	–	inconclusive: 39.8 µM [activator, single point]
C[n+]1ccc(C(=O)N/N=C/c2ccco2)cc1	inactive: -2.35%	–
Cc1ccccc1-n1nc(CO)c(C(=O)NCC(c2ccccc2)c2ccccc2)n1	inactive: 3.25%	–
Cc1cc(/C=N/n2c(COc3ccccc3)nc3ccccc3c2=O)c(O)c([N+](=O)[O-])c1	inactive: -13.7%	–
CC(C)C[C@@H](CC(=O)N[C@H](CC(=O)N[C@@H]1CCCC[C@H]1C(=O)N[C@H](CC(=O)N[C@@H](CCC(=O)O)CC(=O)O)Cc1ccccc1)C(C)C)NC(=O)[C@@H]1CNCC[C@H]1N	inactive: -0.156%	–
O=c1cnc2cnc(Oc3cccc(Cl)c3)nc2n1Cc1ccc(F)cc1	–	inconclusive: 31.6 µM [activator, single point]
COc1ccc(O[C@H]2C=C[C@@H](c3ccccc3)O[C@@H]2COC(=O)CC/C(C)=N/O[C@@H](C)c2cc(-c3c(C)cc(C)cc3C)no2)cc1	–	inconclusive: 15.8 µM [inhibitor, partial curve]
Cc1cccc(N2CCN(C(=O)Cn3ncc4c5ccccc5n(C)c4c3=O)CC2C)c1 (centres undefined)	inactive: 2.09%	–
Cc1ccccc1NC(=O)COC(=O)c1ccc(CSc2ccc(Cl)cc2)cc1	–	active: 10 µM
CCOC(=O)c1ccc(N2C(=O)c3n[nH]c(-c4cccs4)c3C2c2ccc(CC)cc2)cc1 (centres undefined)	–	active: 5.01 µM
Cc1ccc(S(=O)(=O)c2nc(S(=O)(=O)c3ccc(C)cc3)c(NCCCOC(C)C)s2)cc1	inactive: -13.5%	–
COc1cc(N(C)C)c([N+](=O)[O-])cc1C(=O)NC(C)CNc1ccc([N+](=O)[O-])cc1Cl (centres undefined)	–	inconclusive: 39.8 µM [inhibitor, single point]
COC(=O)CC1C(C)(C)C(O)C2CC3=C4C=C(OC)OC(c5ccoc5)[C@]4(C)CCC3[C@@]1(C)C2=O (some centres undefined)	–	inconclusive: 31.6 µM [activator, single point]
COc1cc(OC)cc(C(=O)Nc2ccc(-c3nc4cc(C(C)C)ccc4o3)cc2)c1	–	active: 12.6 µM
CCOC(=O)c1sc(NN=C(C(=O)OC)C(=O)OC)c(C(=O)OCC)c1C	–	inconclusive: 31.6 µM [activator, single point]
Cc1ccccc1OCC(=O)NCC(=O)OCC(=O)c1ccc2ccccc2c1	–	active: 10 µM
CCN(CC(=O)NCc1ccc(F)cc1)C(=O)COc1ccc(C)c(C)c1	–	inconclusive: 25.1 µM [activator, single point]
CCOC(=O)C1CCN(c2nc3c(S(=O)(=O)c4ccccc4)nnn3c3ccc(Cl)cc23)CC1	inactive: 0.357%	–
CCSc1nc(C)nc2c1oc1ccccc12	–	inconclusive: 39.8 µM [activator, single point]
CCSCCOC(=O)C1=C(C)NC2=C(C(=O)CCC2)C1c1coc2ccccc2c1=O (centres undefined)	–	inconclusive: 25.1 µM [activator, single point]

Structure (SMILES)	max response, negative = inhibition	Potency
COCCCNC(=O)C1CCC(Cn2c(=O)c3sccc3n(C)c2=O)CC1 (centres undefined)	inactive: 15.2%	–
CCc1ccc(OCC2c3cc(OC)c(OC)cc3CCN2C(=S)NCCOC)cc1 (centres undefined)	–	inconclusive: 31.6 µM [activator, single point]
Cc1ccc(Cn2c(C)c(CNCC(C)c3ccccc3)c(C(=O)O)c2C)cc1 (centres undefined)	inactive: -0.42%	–
CCOc1ccc(-c2cc3c(=O)n(Cc4nc(-c5ccccc5OCC)oc4C)ccn3n2)cc1Cl	inactive: 8.14%	–
COc1cccc(-c2nnn(CC(=O)Nc3ccc(C)cc3C)n2)c1OC	–	inconclusive: 10 µM [activator, partial curve]
Cc1cccc(C(=O)NCCc2nc3ccccc3n2Cc2ccc(Cl)cc2)c1	–	inconclusive: 31.6 µM [activator, single point]
Cc1cc(NC(=O)CCC(=O)N(c2ccc(F)cc2)C2(C(=O)NC3CCCCC3)CCCC2)no1	–	inconclusive: 25.1 µM [activator, partial curve]
CSCCC(NC(=O)c1ccc([N+](=O)[O-])cc1Cl)C(=O)OCC(=O)NCC(F)(F)F (centres undefined)	–	inconclusive: 39.8 µM [inhibitor, single point]
Cc1ccc(-n2cnc3cc(C(=O)NCc4ccc(F)cc4)ccc32)c(C)c1	inactive: 9.86%	–
CC(Nc1cccc2ccccc12)C(=O)N/N=C/c1ccccn1 (centres undefined)	inactive: -4.53%	–
CCOC(=O)C1CCN(C(c2ccc(OCC)cc2)c2c(O)cc(C)n(CCOC)c2=O)CC1 (centres undefined)	–	inconclusive: 31.6 µM [activator, single point]
O=C1NC(=O)c2c1c1c3ccccc3[nH]c1c1[nH]c3ccccc3c21	–	active: 8.91 µM
O=c1c2oc3ccccc3c2n(Cc2ccc(F)cc2)c(=O)n1Cc1ccco1	–	inconclusive: 39.8 µM [activator, single point]
CCSc1ncc(Cl)c(C(=O)N(Cc2ccccc2)c2ccc(OC)cc2)n1	inactive: -6.55%	–
COc1cc(CNCCSc2nnnn2C)ccc1OCc1ccc(C)cc1	inactive: 1.18%	–
CCOc1cccc(NC(=O)c2sc3nc(-c4ccc(F)cc4)ccc3c2N)c1	inactive: -26.7%	–
CCN(CC)c1ccc(/C=N/NC(=S)NCc2ccc(OC)cc2)cc1	–	inconclusive: 25.1 µM [inhibitor, single point]
COCCOC(=O)c1c(C)oc2ccc(OCc3cc(C(=O)OC)oc3C)cc12	–	inconclusive: 31.6 µM [activator, single point]
Cc1cccc(NC(=O)C2CCCC2)c1	inactive: 9.13%	–
N=c1oc2ccc3ccccc3c2cc1-c1nnc2n1CCCCC2	–	inconclusive: 0.158 µM [activator, full curve]
CCCN(C(=O)c1c(C)oc2ncnc(N3CCOCC3)c12)c1ccc(Cl)c(Cl)c1	inactive: 12.1%	–
Cc1nc(NC(=O)c2ccccc2)sc1-c1csc(Nc2ccc(Cl)cc2Cl)n1	–	active: 7.94 µM

Structure (SMILES)	max response, negative = inhibition	Potency
Cc1ccc2c(CN3CCN(S(=O)(=O)c4ccc5c(c4)OCCO5)CC3)cc(=O)oc2c1C	–	inconclusive: 39.8 µM [inhibitor, single point]
O=C(NCc1ccc2c(c1)OCO2)c1ccc2c(c1)N(Cc1ccccc1F)C(=O)c1ccccc1S2=O (centres undefined)	–	inconclusive: 39.8 µM [inhibitor, single point]
CC(/C=N/NC(=O)c1cccc([N+](=O)[O-])c1)=C\c1ccccc1	–	inconclusive: 25.1 µM [inhibitor, single point]
COc1ccccc1NC(=O)c1c(Nc2ccccc2C)sc(C(=O)Nc2cccc(Cl)c2)c1N	–	active: 3.16 µM
CCc1ccc2[nH]c(=O)c(CN(Cc3ccc(OC)cc3)Cc3nnnn3CCOC)cc2c1	–	inconclusive: 39.8 µM [activator, single point]
Cc1nc(C)c(-c2nnc(-c3ccc(C(C)(C)C)cc3)o2)cc1C(=O)NN	–	inconclusive: 31.6 µM [activator, single point]
CC1CC2=C(CC1/C=N/NC(N)=S)C(C)(C)CCC2 (centres undefined)	–	inconclusive: 1 µM [inhibitor, single point]
O=C(Nc1ccc([N+](=O)[O-])cc1)c1cn(-c2ccccc2)nc1-c1cc2ccccc2o1	–	active: 7.94 µM
COc1cc(OC)cc(-c2cc3nc(C)c(CCC(=O)Nc4ccccc4OC)c(C)n3n2)c1	–	inconclusive: 31.6 µM [activator, single point]
C[C@@H](C(=O)Nc1ccc2ccccc2c1)[C@H]1C[C@]1(C)[C@H](NP(=O)(c1ccccc1)c1ccccc1)c1ccccc1	–	inconclusive: 39.8 µM [inhibitor, single point]
CCCCOc1ccc(CONS(=O)(=O)c2ccc(NC(C)=O)cc2)cc1Cl	–	inconclusive: 39.8 µM [activator, single point]
O=C(CN(c1ccc(Cl)c(C(F)(F)F)c1)S(=O)(=O)c1ccccc1)Nc1cccnc1	–	inconclusive: 31.6 µM [activator, single point]
CCc1ccccc1NC(=O)CSc1nnc(-c2ccccc2)c(-c2ccccc2)n1	inactive: -0.884%	–
Cc1nn2c(CN(C(=O)COc3ccccc3)c3ccccc3)nnc2c2ccccc12	–	inconclusive: 39.8 µM [activator, single point]
CC1=NN(c2ccccc2)C(=O)/C1=C\c1c(C)[nH]n(-c2ccccc2)c1=O	inactive: 1.68%	–
NC(=O)c1ccc([N+](=O)[O-])cc1	inactive: -8.26%	–
CC1CC[C@@]2(OC1)OC1C(O)C3C4CC[C@H]5CC(O[C@@H]6O[C@@H](CO)[C@H](OC7OC(CO)C(O)C(OC8OCC(O)C(O)[C@H]8O)[C@@H]7O[C@@H]7OC(CO)[C@H](O)[C@@H](O[C@@H]8OC(CO)C(O)C(O)C8O)C7O)C(O)C6O)C(O)C[C@]5(C)C4CC[C@]3(C)C1C2C (some centres undefined)	–	inconclusive: 2 µM [activator, partial curve]
COCc1c(Br)c(C)nc2sc3c(=O)n(-c4cccc(Br)c4)nnc3c12	inactive: 6.49%	–
Cn1c(C(=O)N2CCC(C(=O)NCCc3ccccc3)CC2)cc2sccc21	–	inconclusive: 25.1 µM [activator, single point]
CCC(C(=O)NC1CCCCC1)n1c(SCc2cccc(C)c2)nc2ccncc21 (centres undefined)	–	inconclusive: 39.8 µM [inhibitor, single point]

Reference: PubChem BioAssay AID1476 (National Center for Advancing Translational Sciences (NCATS), 2009)
